From a collection of fitness landscapes (doi:10.1126/science.1257360) come the findings set out here.

Some of the results follow. Some results are limits rather than exact numbers.

B1: PhoQ; a variant is named by its letters at X, in order, P23837 (parent)
chain: MKKLLRLFFPLSLRVRFLLATAAVVLVLSLAYGMVALIGYSVSFDKTTFRLLRGESNLFYTLAKWENNKLHVELPENIDKQSPTMTLIYDENGQLLWAQRDVPWLMKMIQPDWLKSNGFHEIEADVNDTSLLLSGDHSIQQQLQEVREDDDDAEMTHSVAVNVYPATSRMPKLTIVVVDTIPVELKSSYMVWSWFIYVLSANLLLVIPLLWVAAWWSLRPIEALAKEVRELEEHNRELLNPATTRELTSLVRNLNRLLKSERERYDKYRTTLTDLTHSLKTPLXXLQXXLRSLRSEKMSVSDAEPVMLEQISRISQQIGYYLHRASMRGGTLLSRELHPVAPLLDNLTSALNKVYQRKGVNISLDISPEISFVGEQNDFVEVMGNVLDNACKYCLEFVEISARQTDEHLYIVVEDDGPGIPLSKREVIFDRGQRVDTLRPGQGVGLAVAREITEQYEGKIVAGESMLGGARMEVIFGRQHSAPKDE

Variants of B1 are the subject of the test. In words: enrichment ratio after two sorts for PhoP signalling (ratio (wild type AVST 3.29)); higher = more functional. To be noted: with PhoP (E. coli).
With LNES, the enrichment ratio was no more than 0.25.

Regarding WAPT, the enrichment ratio was no more than 0.25.

As to VIDW, the enrichment ratio is no more than 0.25.

Regarding YYYD, the enrichment ratio is no more than 0.25. With IASE the figure was no more than 0.25; with QEGI, no more than 0.25. Turning to FCHC, the enrichment ratio was no more than 0.25.

Consider SSMS, for which the enrichment ratio was 11.7. For NLIG, the enrichment ratio was no more than 0.25. In the case of DLTR, the enrichment ratio was no more than 0.25. The same measure for TFDY: no more than 0.25; for MVWF: no more than 0.25. The same measure for MHTC: no more than 0.25; for GVID: no more than 0.25; for ANNN: no more than 0.25.

Turning to GHCH, the enrichment ratio was no more than 0.25. Regarding DYHG, the enrichment ratio was no more than 0.25. On to LWQI, for which the enrichment ratio was no more than 0.25. In the case of GSHI, the enrichment ratio was no more than 0.25. With IGDQ the figure was no more than 0.25; with QSAY, 1.34.

In the case of SHGD, the enrichment ratio was no more than 0.25. The same measure for LFKC: no more than 0.25. With PRKH the figure was no more than 0.25; with MIVI, 3.55. With YKNQ the figure was no more than 0.25.

Regarding KRVL, the enrichment ratio was no more than 0.25. The same measure for DHNK: no more than 0.25; for PLWQ: no more than 0.25.

With RFFA, the enrichment ratio was no more than 0.25. With PHCT the figure was no more than 0.25; with YVTS, no more than 0.25. As to ESGL, the enrichment ratio is no more than 0.25. With PSCF the figure was no more than 0.25; with GQAH, no more than 0.25.

For the variant PFEC, the enrichment ratio is no more than 0.25.

As for SQAH, the enrichment ratio came to 4.76.

In the case of RVFW, the enrichment ratio was no more than 0.25. With GESE the figure was 2.88. As to SHEP, the enrichment ratio is no more than 0.25. With GWIA the figure was no more than 0.25. With ISWR the figure was no more than 0.25; with YPGL, no more than 0.25; with SGGY, 22.8. With EGKH the figure was no more than 0.25; with NYEP, no more than 0.25; with FNRV, no more than 0.25.

Regarding SKRK, the enrichment ratio was no more than 0.25.

In the case of PHTG, the enrichment ratio was no more than 0.25. The same measure for ICVE: no more than 0.25.

Consider NKNT, for which the enrichment ratio was no more than 0.25. The same measure for TNWK: no more than 0.25; for NRQC: no more than 0.25. As to FKFM, the enrichment ratio is no more than 0.25. With MNLF the figure was no more than 0.25; with TEDC, no more than 0.25. The same measure for TVCQ: 1.7. With INFG the figure was no more than 0.25; with IARF, no more than 0.25; with HTLL, 8.34. For the variant RIRE, the enrichment ratio is no more than 0.25.

As for GRCM, the enrichment ratio was no more than 0.25. With IFMM the figure was no more than 0.25; with PIPI, no more than 0.25; with FPVC, no more than 0.25. With QLST the figure was no more than 0.25; with FYRE, no more than 0.25; with TMFS, no more than 0.25. The same measure for QRKF: no more than 0.25. For the variant YLYV, the enrichment ratio is no more than 0.25. Regarding EHTF, the enrichment ratio was no more than 0.25. With FNYH the figure was no more than 0.25. With RRQP the figure was no more than 0.25; with KSGD, no more than 0.25; with FTHR, no more than 0.25. The same measure for YENP: no more than 0.25; for HREY: no more than 0.25.

On to IWQN, for which the enrichment ratio is no more than 0.25. With AIGH the figure was 2.15; with TRPK, no more than 0.25. In the case of EIFE, the enrichment ratio is no more than 0.25. With CCDL, the enrichment ratio was no more than 0.25. With SEDR the figure was no more than 0.25. For YDFG, the enrichment ratio was no more than 0.25. With WEKR the figure was no more than 0.25; with IKQV, no more than 0.25. As to LIMF, the enrichment ratio is no more than 0.25. For SYPY, the enrichment ratio was no more than 0.25. SLFS: the enrichment ratio was no more than 0.25.

For the variant RAAR, the enrichment ratio was no more than 0.25. SGIC: the enrichment ratio was found to be 8.34. The same measure for SMHI: no more than 0.25. On to HVQK, for which the enrichment ratio is no more than 0.25. Consider MRMT, for which the enrichment ratio is no more than 0.25. The same measure for LMYH: no more than 0.25; for QEPM: no more than 0.25; for ALLQ: 14.7. For the variant SCDW, the enrichment ratio was no more than 0.25. The same measure for KRQI: no more than 0.25. Regarding VFYK, the enrichment ratio was no more than 0.25. As to NDIA, the enrichment ratio is no more than 0.25. The same measure for PMQN: no more than 0.25; for ACNY: 0.855. The same measure for KHVW: no more than 0.25; for YANW: no more than 0.25; for PTQL: no more than 0.25. With WPTR the figure was no more than 0.25. In the case of FPLW, the enrichment ratio is no more than 0.25.

As to LNIF, the enrichment ratio is no more than 0.25. With ERML the figure was no more than 0.25.

For HGVN, the enrichment ratio was no more than 0.25. As for IWGM, the enrichment ratio is no more than 0.25. With TDYS the figure was no more than 0.25; with VKKE, no more than 0.25; with VIQL, no more than 0.25. The same measure for HKMN: no more than 0.25; for HFDG: no more than 0.25. Consider DKLL, for which the enrichment ratio turned out to be 0.415. With KDAL the figure was no more than 0.25. DCYF: the enrichment ratio was no more than 0.25. Turning to PVIG, the enrichment ratio is no more than 0.25. On to HYDD, for which the enrichment ratio was no more than 0.25. For SAAK, the enrichment ratio amounted to 5.94. The same measure for ASHG: no more than 0.25; for DPAD: no more than 0.25; for GKYE: no more than 0.25. Regarding WRVD, the enrichment ratio is no more than 0.25. With LINL the figure was no more than 0.25.

For CSNF, the enrichment ratio stood at 10.8. The same measure for QQRM: no more than 0.25. In the case of MDRW, the enrichment ratio is no more than 0.25. Take FDCW: the enrichment ratio was no more than 0.25.

As to PTWF, the enrichment ratio was no more than 0.25. For PWCG, the enrichment ratio is no more than 0.25.

Turning to HEGY, the enrichment ratio is no more than 0.25. With WYTI the figure was no more than 0.25; with QESL, 0.967. As to LEWV, the enrichment ratio is 11.9. The same measure for AGKM: no more than 0.25; for RLEG: no more than 0.25.

On to ASTF, for which the enrichment ratio turned out to be 11.8.

Regarding VQKW, the enrichment ratio was no more than 0.25. Turning to QLLD, the enrichment ratio is no more than 0.25. With QPHI the figure was no more than 0.25; with KALW, no more than 0.25. The same measure for GNAC: 12.5; for FCNF: no more than 0.25; for DMKV: no more than 0.25.

For LYRW, the enrichment ratio was no more than 0.25. As for EDYE, the enrichment ratio was no more than 0.25. With SIED the figure was no more than 0.25. On to MTRA, for which the enrichment ratio is no more than 0.25. With GWPY the figure was no more than 0.25; with KSEC, no more than 0.25; with AQYE, no more than 0.25. Take ETGH: the enrichment ratio is no more than 0.25.

LWDY: the enrichment ratio was no more than 0.25. The same measure for QCYT: no more than 0.25; for IRPY: no more than 0.25; for MLFG: no more than 0.25. The same measure for HYSN: no more than 0.25. Turning to YQVY, the enrichment ratio is no more than 0.25.

As to VVVI, the enrichment ratio was no more than 0.25. On to LHQI, for which the enrichment ratio was no more than 0.25.

As for QTRS, the enrichment ratio is no more than 0.25. Take AKDV: the enrichment ratio is no more than 0.25. With TQHI the figure was 3.97; with LNID, no more than 0.25; with RHHR, no more than 0.25. The same measure for YKGC: no more than 0.25; for SVNI: no more than 0.25. On to FKIY, for which the enrichment ratio is no more than 0.25.

With NKHH, the enrichment ratio is no more than 0.25. As to TPLC, the enrichment ratio was no more than 0.25. The same measure for IWQL: no more than 0.25. With DRYF the figure was no more than 0.25; with SHNL, 7.36; with TDYV, no more than 0.25. The same measure for FNIS: no more than 0.25. In the case of QFAN, the enrichment ratio is no more than 0.25. The same measure for EGKF: no more than 0.25; for DNNL: no more than 0.25; for SPVH: no more than 0.25. With GSKK the figure was no more than 0.25. For the variant LESE, the enrichment ratio was no more than 0.25.

Regarding YSSF, the enrichment ratio was no more than 0.25. In the case of AYIL, the enrichment ratio worked out at 1.01. Take FIIR: the enrichment ratio is no more than 0.25. The same measure for VLAK: no more than 0.25; for AVAL: 11.

Consider GDVC, for which the enrichment ratio was 7.92. Turning to KMCV, the enrichment ratio is no more than 0.25. The same measure for TMHS: 1.08; for NEPG: no more than 0.25; for KICW: no more than 0.25.
